# This is one part of the list. At the low end of the ranking, values are background and their order means little.
# Biological target: SIX1 homeodomain (reference allele) (UniProt Q15475)
# Experiment: universal protein binding microarray
# Conditions: Universal all-10-mer PBM (8x60K, AMADID 030236), 300 nM GST-tagged protein, Alexa Fluor 488 anti-GST; buffer, salt, pH and temperature not stated; high values mean tight binding; most listed sequences are background and not binding sites; double strand, one strand shown
row,Sequence,binding signal [E-score]
1,GATATCGA,0.42
2,AATTTCAG,-0.321
3,AATAAGCC,-0.152
4,ACTACAAT,0.00924
5,AAGATATC,0.445
6,ATCGTCGG,0.0772
7,AGACAGCC,-0.214
8,ATCTCCCC,0.249
9,AATTCAAG,-0.071
10,CACTGGAC,-0.115
11,AATACTCG,0.165
12,AATTACCG,-0.11
13,ATGTCCCA,-0.18
14,GAATTTGC,-0.0839
15,AAATCGGG,-0.0204
16,GCGGGGAA,-0.114
17,AGGTCACG,-0.176
18,ACGACATG,-0.142
19,AGCCACTC,-0.0841
20,CCCAGGTC,-0.162
21,CATATGTC,0.0736
22,CTCTGTGC,-0.09
23,AAGGGACC,-0.0884
24,AGGACAAC,-0.076
25,CGTACCGC,0.0254

row,Sequence,binding signal [E-score]
1,GATCCTCC,0.381
2,AATTAACA,-0.0919
3,GCCTCCAA,-0.158
4,CACATCGA,-0.174
5,CCCCTCCA,0.215
6,ACAACGGC,-0.196
7,GTGTGCGA,-0.139
8,CTGGTTCC,-0.319
9,AACGTTTC,-0.15
10,CTTAACAA,-0.144
11,AAACTAGG,0.0144
12,AGTTCCTC,-0.338
13,CACACTTA,-0.0661
14,GTCCCGGA,-0.0696
15,GCGCTACC,-0.222
16,AAGAGGGG,-0.0356
17,CTGGCGTC,-0.17
18,GTAAGCAC,-0.224
19,CATTATCG,-0.0406
20,CGGTCTAG,-0.0274
21,GAATACGC,0.121
22,ATCGCGTG,0.311
23,AGACCATA,0.19
24,AGCTTGCG,-0.249
25,AAGTTCAG,-0.0682

row,Sequence,binding signal [E-score]
1,CTAGAGGA,-0.0624
2,ACGCTACA,-0.0503
3,CCTTAAGA,-0.112
4,AGCTTCAC,-0.213
5,TGAGGACA,-0.0627
6,CGTACTAA,-0.00533
7,CCCATGGG,0.152
8,CTACGTCC,-0.0752
9,GCAGGCTA,-0.0332
10,CACAGGAG,-0.00275
11,GAACTAAC,-0.171
12,TAATTAAA,-0.00652
13,GACGCAAC,-0.182
14,GTCGCAAA,-0.169
15,CATCGCAC,0.0772
16,CGGTACAG,0.129
17,CATAAGTC,-0.234
18,AGCACGTC,-0.201
19,CACTCAGA,0.0324
20,GGAACAAA,0.0244
21,ACGAGTAC,-0.0781
22,GCCCCGAA,0.0298
23,AATGACAC,0.297
24,GACAGGCC,-0.0859
25,ACTTTTAG,-0.0786

row,Sequence,binding signal [E-score]
1,CGCCAATC,-0.068
2,ACGTCCCC,-0.119
3,GAATTTCC,-0.337
4,CTGCCAAC,-0.127
5,CCCATAAG,0.0605
6,GACCGGAA,-0.146
7,CATTTTAC,-0.0112
8,AGGATCCT,0.385
9,GAACATAC,-0.0419
10,TACGCGCA,0.174
11,ACGTAGTA,0.0197
12,AGCTTCCA,-0.208
13,AATGCCCT,-0.223
14,GCTCGGCC,-0.135
15,CTATGCCC,0.0179
16,TGATTACA,-0.0151
17,ACCTCGCC,-0.0512
18,ACGCTGAC,-0.0412
19,TCTACAAA,-0.218
20,ATGAGTTG,-0.16
21,GATCCTGC,0.353
22,GGTTCTTA,-0.0137
23,ACACGACA,0.0657
24,CCACCGGA,0.109
25,CGCGCGCA,-0.0647

row,Sequence,binding signal [E-score]
1,CGAGCAGA,-0.175
2,GAGCTCAC,0.0227
3,TATTTCGA,0.129
4,CCTCGACG,-0.0194
5,GTCAGCAC,-0.211
6,AGCGATGG,0.0163
7,ACTAGCTG,-0.0085
8,AATTCTAG,-0.0361
9,CAAAGCAC,-0.12
10,ACAGTTAA,-0.137
11,GCCGTCCA,-0.0993
12,TGCTCCAA,-0.133
13,GCATCTCA,0.186
14,AGTCGATC,0.234
15,AAGATGAG,-0.0829
16,CAACTCCA,-0.117
17,ACCAATGG,0.046
18,ACTTCAAC,-0.0833
19,GATCTGGA,0.274
20,AGCCTACC,-0.00394
21,AGAATAAT,0.0944
22,GTGCATCA,-0.114
23,CCGCACAC,-0.0101
24,ACTATTAC,0.0512
25,GCTATCCA,0.204

row,Sequence,binding signal [E-score]
1,AAACTGTG,-0.0816
2,CACCGTCA,-0.106
3,ATCTTAAC,0.0596
4,ATCCCTCA,0.312
5,AGCACTGG,0.164
6,CCCTGCAC,-0.0879
7,AGCGCGGG,0.108
8,CGGCCATC,-0.127
9,AAATTCAC,-0.268
10,GTAATATA,0.226
11,GCTAGAAC,-0.155
12,CCGGATCG,0.417
13,AGGCGACA,-0.0203
14,GGAACATA,-0.0283
15,CCGCCCCG,0.16
16,GCCGGTGA,0.105
17,CACGCCGC,-0.356
18,AGTATGGA,-0.0313
19,ACTAGATA,0.304
20,CCCGAGCC,0.0921
21,CCCAACGA,-0.119
22,GGATGAAC,9.5e-05
23,CGGTTAGA,0.0447
24,CATGGAAA,-0.264
25,ATGGTTGA,-0.0669

row,Sequence,binding signal [E-score]
1,CCACGACG,-0.13
2,AGTAAGCA,-0.222
3,CTAAATGA,0.0973
4,GGGAAACC,0.162
5,AGGTAACG,-0.202
6,AAGATCCA,0.209
7,ATTATTCC,0.0344
8,AATCCACC,0.126
9,GTAAACGA,0.125
10,GACCAAGC,-0.217
11,CGTGATCA,0.181
12,ATGCTTTA,0.00997
13,ATGGTCAC,0.0109
14,AGACATTG,0.0559
15,GGGCCCCA,-0.222
16,ATACCCCG,0.47
17,GCAAATAA,-0.134
18,CGGGTTAA,0.203
19,CAGATGGA,0.127
20,ATAGAATA,0.162
21,CTACACGA,0.136
22,CCAGGCCG,-0.139
23,AGGGCTCG,-0.00225
24,AGGTGGCG,-0.134
25,CGGCTTGC,-0.165

row,Sequence,binding signal [E-score]
1,AGATTTCC,-0.128
2,ATAAACCC,0.188
3,CAATGACC,-0.103
4,ATCCCTGA,0.272
5,AAAACTGT,-0.138
6,AACAGCTG,-0.223
7,GCCCGTGA,0.00892
8,AATCTCAG,0.00664
9,GAATAGCA,-0.0444
10,ATCGGGTA,0.337
11,AAGCGCAT,0.0081
12,CACCTCCA,0.0923
13,ACCGGGTA,0.274
14,CTAGGAAC,-0.285
15,CTAACTGC,-0.258
16,ACGGCGGC,-0.277
17,CGCACATC,-0.121
18,GACACCTC,0.397
19,CGAGTTAA,-0.0559
20,TAGAGGCA,-0.105
21,CATTTCCC,-0.141
22,CCGAGGTA,0.0983
23,AAATCGGT,-0.169
24,GAGTTAGC,-0.131
25,AGAGGGAA,-0.185

row,Sequence,binding signal [E-score]
1,ACGCATCC,0.0357
2,CGGTACCG,-0.182
3,AGAATGCA,-0.0977
4,ATCTTCGA,0.193
5,GGGCACCC,0.000475
6,AAAATGGC,-0.176
7,GCCGGACA,-0.122
8,GTAAGTCA,-0.201
9,TAGACTCA,-0.0831
10,AGGTAGAG,-0.124
11,AACCTACC,-0.047
12,ATTAACTG,0.0705
13,AGCTTCTG,-0.0355
14,GCTAGTTA,-0.124
15,CCCCAAAC,-0.0898
16,ATTGGGCA,-0.0995
17,CTCACATC,0.0249
18,CCGATGAA,0.014
19,GGCTAGCC,0.0579
20,AAACAACA,-0.113
21,AGGGCCGA,-0.00617
22,AATTTGCA,-0.0823
23,ACGCACTG,-0.0973
24,CCAGATAG,0.14
25,GGCTCCAC,-0.144

row,Sequence,binding signal [E-score]
1,TAGGCAAA,-0.174
2,AGTCTATC,0.00881
3,AGCTAGCT,0.0399
4,CGTAGCTC,0.0539
5,CGCAAAAA,0.0219
6,TGTTCCAA,-0.135
7,CGTAAAGA,-0.221
8,CGCCTTTA,0.136
9,AACTGTCG,-0.0942
10,AAATTGGT,-0.108
11,GCTCACCC,0.0863
12,CATTGACA,-0.059
13,ATTAAGCA,-0.0802
14,GGCAATTA,-0.00217
15,CACAGAGG,-0.0106
16,CAGCTTTA,-0.109
17,ACGTGCTG,0.0415
18,TACGAGCA,-0.0092
19,AAGCCCCA,-0.055
20,ACGTTCAG,-0.237
21,GACCGCTA,-0.0055
22,CTACGGCA,-0.246
23,CATGAAGA,0.0648
24,ATTATCCG,0.351
25,AAAAGGTA,-0.04

row,Sequence,binding signal [E-score]
1,ACTGGGAG,0.036
2,ATTGCAAT,0.0324
3,CCCGGTAA,0.0147
4,CGTAATCC,0.276
5,GGCATGCA,-0.153
6,AAAGACTT,-0.309
7,ACTAACTC,-0.225
8,GTGCGCTA,-0.172
9,AAAAAGAA,-0.163
10,CAAAAACC,-0.000125
11,GATCAGAC,0.249
12,CCTGGGCC,-0.106
13,GACAGGAC,-0.368
14,ATTAGAAA,-0.12
15,CGCGAAAG,-0.0786
16,AAGGCGTG,-0.09
17,CTATTTAC,-0.0352
18,CGGAAGAC,-0.0635
19,CGTAGTTC,-0.325
20,CGGTTCAA,-0.0401
21,ACCAGGCG,-0.0427
22,CACCTAAG,0.17
23,AGCTACAA,-0.139
24,CAGCCGCA,-0.0858
25,GGGGATAC,0.44

row,Sequence,binding signal [E-score]
1,AACAATGG,-0.166
2,CTTTATGA,-0.0868
3,AGTCGAGA,-0.0434
4,CAGTTACA,-0.0345
5,ACGGTCAC,-0.25
6,ACGTGTCG,-0.11
7,GCACTACC,0.0323
8,GCACTTGA,-0.0358
9,AATACTTA,0.0609
10,ACGGTAAA,-0.217
11,ATAACTGA,0.0924
12,CACTCGGA,0.194
13,GTCCGAGA,0.0174
14,AAGTAATT,-0.132
15,CGCCTAAG,-0.245
16,CCTTTCTA,-0.0641
17,ATGCCAGA,0.0745
18,ACCGTTTC,-0.109
19,CAAAGCTA,-0.0713
20,CGATGAGC,0.0262
21,CCATCCAA,0.0914
22,ATCCGTGG,0.295
23,ATCGTACG,0.132
24,ACCCTTCT,0.224
25,TTGCCCAA,-0.0948

row,Sequence,binding signal [E-score]
1,GTCGTCCA,-0.136
2,GTAATCTA,0.15
3,GAAAAAGA,-0.173
4,AGATTGCG,-0.0727
5,CGTTAATA,0.0475
6,GGTGTAAA,0.198
7,GACTGTCC,-0.25
8,ATGGGCAA,-0.0761
9,GCCCATCA,-0.142
10,GCCTACGC,0.0164
11,CATTTAGA,-0.0313
12,GACGTAGC,0.0367
13,TCTAGGAA,-0.107
14,AGCAGACG,-0.209
15,AATATTCT,0.0285
16,ATTTTACA,-0.162
17,GAGCTATC,0.282
18,CTCTATAA,-0.0753
19,CTTCCAAA,-0.226
20,GCTGCACC,-0.0757
21,CTATCTTC,0.107
22,TCGGCCCA,-0.139
23,ACCTAATG,-0.0118
24,ACCTGTGA,0.00985
25,CCTCTGCA,-0.0762

row,Sequence,binding signal [E-score]
1,TTCATAAA,-0.192
2,GCAGTCCA,-0.213
3,ACTTTCAG,-0.111
4,ATAACGCA,0.0308
5,ACCGCGCG,0.175
6,TTAGATAA,0.133
7,GGCTATGA,-0.101
8,GGGCGACC,-0.0587
9,CCGGCCCA,-0.156
10,GTGATATA,0.419
11,AGCATTGG,-0.204
12,AACCCCCA,-0.119
13,AAAGTCGG,-0.223
14,CTAAGGTA,0.0753
15,CTTATTCC,-0.0854
16,AACCATAG,-0.157
17,GCGGTGCC,-0.0843
18,CATTTCGC,-0.0436
19,AGCCAGAA,-0.27

# From article PMC10668032
